Source: the supplement of paper PMC3334620
Whole data set: some 33,000 sequences, median “E-score (-0.5 to 0.5)” near -0.021, cut for the highest 2% near 0.32. The list shows a part of the results.

The sequences below were run against T1, Zap1 (UniProt P47043) (assay: PBM E-score (8-mer binding enrichment) (E-score (-0.5 to 0.5)); higher = stronger / more preferred TF binding; most listed sequences are background and not binding sites). Details: protein concentration: 200 nM; construct: GST-full length.
T1 sequence: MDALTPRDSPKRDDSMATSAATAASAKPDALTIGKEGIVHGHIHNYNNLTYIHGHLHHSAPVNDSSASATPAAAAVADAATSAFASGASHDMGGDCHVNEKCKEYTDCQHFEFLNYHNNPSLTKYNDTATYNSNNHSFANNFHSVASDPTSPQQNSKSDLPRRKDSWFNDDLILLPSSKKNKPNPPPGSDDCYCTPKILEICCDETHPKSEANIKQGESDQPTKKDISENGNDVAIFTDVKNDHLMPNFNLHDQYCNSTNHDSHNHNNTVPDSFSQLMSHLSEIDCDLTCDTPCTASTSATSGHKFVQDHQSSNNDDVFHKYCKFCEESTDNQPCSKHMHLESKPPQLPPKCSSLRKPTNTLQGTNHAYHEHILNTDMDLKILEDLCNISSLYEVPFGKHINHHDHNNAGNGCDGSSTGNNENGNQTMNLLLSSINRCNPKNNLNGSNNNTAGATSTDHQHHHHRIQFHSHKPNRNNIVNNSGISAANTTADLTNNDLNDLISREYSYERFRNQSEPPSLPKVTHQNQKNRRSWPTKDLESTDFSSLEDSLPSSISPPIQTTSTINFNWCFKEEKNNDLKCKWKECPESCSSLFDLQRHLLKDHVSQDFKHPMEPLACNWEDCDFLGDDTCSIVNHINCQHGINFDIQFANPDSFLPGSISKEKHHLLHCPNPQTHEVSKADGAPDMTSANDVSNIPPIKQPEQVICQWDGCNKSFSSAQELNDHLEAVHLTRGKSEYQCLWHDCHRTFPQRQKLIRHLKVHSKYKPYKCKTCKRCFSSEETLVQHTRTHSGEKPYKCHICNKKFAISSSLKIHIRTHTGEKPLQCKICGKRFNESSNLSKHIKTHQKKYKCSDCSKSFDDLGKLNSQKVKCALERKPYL
Method in brief: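 Yeast transcription factors, full-length or as DNA-binding domains, were expressed with a GST tag using PURExpress in vitro transcription/translation. At about 100-200 nM they were applied to universal all-10-mer Agilent arrays, double-stranded by primer extension on fresh or once-stripped slides. Fluorescent anti-GST detected bound protein, and masliner normalised the scans. E-scores for ungapped eight-base words, pooled with reverse complements, came from the Universal PBM Analysis Suite.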
For AGCGGACT, the “PBM E-score” value was -0.197.
For ATTAGGAA, the “PBM E-score” value was 0.0387.
In the case of AACGTTAA, the “PBM E-score” value is reported as 0.116.
With AGGCCTAA the “PBM E-score” value was 0.206.
ACACCTTG was tested, and the “PBM E-score” value was 0.149.
For AACTCCCA, the “PBM E-score” value was -0.0305.
With CCGTTTTC the “PBM E-score” value was 0.0524.
With CCCCTGTC the “PBM E-score” value was -0.216.
For ATAATATG, the “PBM E-score” value was 0.12.
For ACCTTGTA, the “PBM E-score” value was 0.286.
For CACGAAAA, the “PBM E-score” value was 0.101.
In the case of GATCCCTA, the “PBM E-score” value is reported as -0.116.
With GTCGGTGA the “PBM E-score” value was -0.312.
For CAAAACTA, the “PBM E-score” value was 0.094.
AAGCTGCC was tested, and the “PBM E-score” value was -0.266.
AATCCTCA was tested, and the “PBM E-score” value was -0.0702.
With CGCTATCA the “PBM E-score” value was -0.078.
In the case of AAATAGCG, the “PBM E-score” value is reported as 0.0695.
For CAACCGTA, the “PBM E-score” value was 0.0143.
In the case of GGATCGAA, the “PBM E-score” value is reported as -0.11.
With GACGCACC the “PBM E-score” value was -0.0172.
With CCGAGAAC the “PBM E-score” value was -0.00423.
ACGCTGCA was tested, and the “PBM E-score” value was -0.171.
In the case of AGGATCCA, the “PBM E-score” value is reported as -0.0568.
CCTCACCC was tested, and the “PBM E-score” value was -0.07.
GCTCTCAC was tested, and the “PBM E-score” value was -0.235.
For AAGCTCAT, the “PBM E-score” value was -0.269.
ATATCGTC was tested, and the “PBM E-score” value was 0.0354.
GCAAATCA was tested, and the “PBM E-score” value was -0.0339.
For AACGCTAC, the “PBM E-score” value was -0.13.
With AACCTCTT the “PBM E-score” value was 0.397.
AAGTCCGC was tested, and the “PBM E-score” value was -0.054.
In the case of CTCCGCTA, the “PBM E-score” value is reported as -0.239.
GCTACCGA was tested, and the “PBM E-score” value was 0.0886.
For CGCCTGCC, the “PBM E-score” value was -0.379.
With ACAGAACG the “PBM E-score” value was -0.211.
AGGTCCGG was tested, and the “PBM E-score” value was 0.0109.
TGGGCAAA was tested, and the “PBM E-score” value was -0.08.
CGACTCCG was tested, and the “PBM E-score” value was -0.392.
With ACGCGTTC the “PBM E-score” value was -0.105.
With AAATAATC the “PBM E-score” value was 0.0737.
With CTAAAATA the “PBM E-score” value was 0.093.
In the case of AAAGCGCA, the “PBM E-score” value is reported as -0.174.
With GAGCCATC the “PBM E-score” value was -0.232.
CCCTCCCG was tested, and the “PBM E-score” value was -0.042.
CCACGAAA was tested, and the “PBM E-score” value was 0.0425.
In the case of ATGAAAGA, the “PBM E-score” value is reported as 0.0644.
With CATGCCAA the “PBM E-score” value was -0.0416.
For TTACTCAA, the “PBM E-score” value was 0.0202.
For AACTCCCG, the “PBM E-score” value was -0.0817.
With ACTCGGCC the “PBM E-score” value was -0.16.
CTTCCCCC was tested, and the “PBM E-score” value was -0.442.
For ATGCATAC, the “PBM E-score” value was -0.0129.
With AGTGGTGA the “PBM E-score” value was -0.0449.
With AGCCATAG the “PBM E-score” value was -0.138.
CCGGACGC was tested, and the “PBM E-score” value was -0.165.
ACAAAACA was tested, and the “PBM E-score” value was 0.0856.
For CTCACAGA, the “PBM E-score” value was 0.0413.
GTTATAAA was tested, and the “PBM E-score” value was 0.279.
With ATGTAGTG the “PBM E-score” value was -0.0999.
AGTTGCAG was tested, and the “PBM E-score” value was -0.109.
With AAGACTTG the “PBM E-score” value was -0.0315.
In the case of GTTAGTAA, the “PBM E-score” value is reported as 0.171.
In the case of CTGCGCCC, the “PBM E-score” value is reported as -0.327.
ACTTGATA was tested, and the “PBM E-score” value was 0.0341.
With CCTTTACC the “PBM E-score” value was 0.108.
CGATTGCG was tested, and the “PBM E-score” value was -0.261.
For AAGTAATG, the “PBM E-score” value was 0.0586.
With AGTTCGCC the “PBM E-score” value was -0.124.
With ATGTGGCA the “PBM E-score” value was -0.218.
For AATGCTAG, the “PBM E-score” value was -0.264.
With CGGACGGC the “PBM E-score” value was -0.269.
AAGCGATA was tested, and the “PBM E-score” value was 0.004.
With CGGAGATC the “PBM E-score” value was -0.289.
With CAACTCTA the “PBM E-score” value was -0.0743.
In the case of TATGATGA, the “PBM E-score” value is reported as 0.0587.
In the case of GTCAATAA, the “PBM E-score” value is reported as 0.0959.
In the case of ACCTTATG, the “PBM E-score” value is reported as 0.314.
For CGCTACAA, the “PBM E-score” value was -0.0268.
For GCGGGCGA, the “PBM E-score” value was -0.105.
AAGTTTTG was tested, and the “PBM E-score” value was 0.161.
For CGAAACGA, the “PBM E-score” value was 0.0447.
With CAGTCGGA the “PBM E-score” value was -0.131.
For ATAGATGC, the “PBM E-score” value was -0.23.
In the case of AGATCTAC, the “PBM E-score” value is reported as 0.0129.
In the case of GACCCGTA, the “PBM E-score” value is reported as 0.212.
For CTTGGTTA, the “PBM E-score” value was 0.334.
CTACTAAA was tested, and the “PBM E-score” value was 0.0351.
With CTGAGTGC the “PBM E-score” value was -0.134.
With CCGGGCCA the “PBM E-score” value was -0.0147.
For GTAAAGCA, the “PBM E-score” value was 0.063.
ATAAATAC was tested, and the “PBM E-score” value was 0.131.
For CCACGACC, the “PBM E-score” value was 0.314.
In the case of GCTACATA, the “PBM E-score” value is reported as -0.224.
AGCTACTC was tested, and the “PBM E-score” value was -0.066.
In the case of AGCTCGGC, the “PBM E-score” value is reported as -0.189.
For CACATTAC, the “PBM E-score” value was -0.0748.
For AAAATGGG, the “PBM E-score” value was 0.0893.
AGCCACTA was tested, and the “PBM E-score” value was -0.0262.
In the case of CGGTCATC, the “PBM E-score” value is reported as 0.131.
In the case of GAGAAGGA, the “PBM E-score” value is reported as -0.232.
For CACTATAG, the “PBM E-score” value was 0.0502.
With CTCTTCTA the “PBM E-score” value was -0.0672.
ACGTGCGG was tested, and the “PBM E-score” value was -0.0512.
With ATATCCTA the “PBM E-score” value was -0.0164.
In the case of CCCCACGG, the “PBM E-score” value is reported as 0.178.
In the case of GGATTTAC, the “PBM E-score” value is reported as -0.0955.
For GAAGGTAA, the “PBM E-score” value was 0.319.
With CTCAGATC the “PBM E-score” value was -0.00776.
For GAATCTCA, the “PBM E-score” value was -0.167.
ACGCCGTC was tested, and the “PBM E-score” value was -0.299.
ACTAATGC was tested, and the “PBM E-score” value was -0.0246.
AAGAACTG was tested, and the “PBM E-score” value was -0.106.
AGCCTGAT was tested, and the “PBM E-score” value was -0.177.
GGCGTCGA was tested, and the “PBM E-score” value was 0.0444.
With ATCGTCCA the “PBM E-score” value was -0.261.
ATACGCAC was tested, and the “PBM E-score” value was -0.0166.
With TGTGGGAA the “PBM E-score” value was -0.0742.
CCGACCTC was tested, and the “PBM E-score” value was -0.0902.
With AATCATTG the “PBM E-score” value was 0.0609.
CTCAGACA was tested, and the “PBM E-score” value was -0.0287.
AAGCTCCC was tested, and the “PBM E-score” value was -0.172.
GGTGATCA was tested, and the “PBM E-score” value was 0.213.
For CAGGCTCA, the “PBM E-score” value was -0.29.
TACTGAAA was tested, and the “PBM E-score” value was 0.173.
In the case of ACGGAGTA, the “PBM E-score” value is reported as 0.119.
In the case of AGACATTG, the “PBM E-score” value is reported as -0.172.
AGCGCCGG was tested, and the “PBM E-score” value was -0.122.
For AACCAGTT, the “PBM E-score” value was 0.291.
With GGCTAAGA the “PBM E-score” value was -0.0566.
For CGTACACC, the “PBM E-score” value was -0.00147.
In the case of GCCCCGAC, the “PBM E-score” value is reported as 0.0325.
AAAGGGCT was tested, and the “PBM E-score” value was 0.00434.
For ACGCGCGT, the “PBM E-score” value was 0.146.
For AGCCTCGG, the “PBM E-score” value was -0.112.
In the case of TATTATAA, the “PBM E-score” value is reported as 0.258.
For ACGTACAC, the “PBM E-score” value was -0.0137.
With AGATGTCA the “PBM E-score” value was -0.11.
With CCAAAACG the “PBM E-score” value was 0.163.
With TACACCAA the “PBM E-score” value was 0.297.
With AAGAGCCC the “PBM E-score” value was -0.209.
With CCACAGGA the “PBM E-score” value was -0.0546.
With TCGCAGAA the “PBM E-score” value was -0.0445.
For AGGCCACT, the “PBM E-score” value was -0.13.
AATAGTCT was tested, and the “PBM E-score” value was 0.00568.
With GCAGTTGA the “PBM E-score” value was 0.0156.
In the case of CCCCAGCA, the “PBM E-score” value is reported as 0.133.
AACTGCCC was tested, and the “PBM E-score” value was -0.167.
In the case of TACCAAGA, the “PBM E-score” value is reported as 0.218.
In the case of ATGTCGGC, the “PBM E-score” value is reported as -0.135.
In the case of ACAGTTTC, the “PBM E-score” value is reported as 0.0648.
With CTGGCGTC the “PBM E-score” value was -0.109.
For CACCCGAC, the “PBM E-score” value was 0.137.
With ATTCCCTA the “PBM E-score” value was 0.0426.
For CCTTTTCA, the “PBM E-score” value was 0.17.
AAGCGCCA was tested, and the “PBM E-score” value was -0.308.
AGTCCAAA was tested, and the “PBM E-score” value was -0.0618.
With ACTTCAAT the “PBM E-score” value was 0.101.
In the case of ATTGTTGC, the “PBM E-score” value is reported as 0.1.
